Test results taken from PubChem BioAssay AID1508624 (National Center for Advancing Translational Sciences (NCATS), 2021).
The campaign covered roughly 48,000 compounds. About 120 (0.25%) were called active. Roughly 4% stayed inconclusive and do not appear here. Calls follow the shape of the dose curve; as a rule, active = well fitted activation curve with a large enough effect; inconclusive = small, poorly fitted or top-dose-only effect, or another doubt; inactive = no such curve, though single readings can be large or run the other way. This is one part of the list.

Experiment: Primary qHTS for Identification of Small Molecule Activators of Huntingtin-Antisense Promoter Activity; also: nearly all actives have a fitted effect of over 55% in size
Settings: HEK293 HTT-AS promoter firefly luciferase reporter (activity 0% = vehicle and -100% = no light), 24 h; series mostly up to 57.5 µM; activity change, positive = activation: at the top concentration
Outline: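 Firefly luciferase readout (Dual-Glo, 10 min RT) after 24 h, 37 °C compound exposure (final up to 57.5 uM) of HEK293 reporter cells cultured 24 h beforehand; PTC124 at 50 uM final as control inhibitor; activity scaled vehicle 0%, zero RLU -100%.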

Activity change, positive = activation, inactive:
CCOC(=O)c1ccc(NC(=O)c2c(NC(C)=O)sc3c2CCC(C)C3)cc1 (configuration not stated) -33.6%
O=S(=O)(NCCc1nnc2ccc(SCc3ccc(Cl)cc3Cl)nn12)c1ccccc1 -5.32%
CCOc1ccccc1NC(=O)c1sc2nc3n(c(=O)c2c1C)CCCCC3 -7.07%
Cc1ccc(-c2nc3scc(CCNC(=O)Cc4ccc(Cl)cc4)n3n2)cc1 -25.4%
CCOc1ccc(N(C(=O)CC(C)C)S(=O)(=O)c2ccc3c(c2)oc(=O)n3C)cc1 -46.7%
COc1ccc(CCNC(=O)CCCn2c(=O)c3ccccc3n(Cc3cccc(Cl)c3)c2=O)cc1OC -34.5%
Nc1nc2ccccc2n1Cc1ccc(F)cc1 -19.3%
COc1ccc(S(=O)(=O)n2nc(C)c(S(=O)(=O)N3CCC(C)CC3)c2C)cc1C -5.49%
CCC(=O)Nc1c(C(=O)N2CCN(c3ccc(F)cc3)CC2)oc2ccccc12 -34.2%
CCN(CC)c1ccc(NS(=O)(=O)c2ccc(-c3cnc(C4CC4)o3)cc2)c(C)c1 -31.1%
CCCn1c(SCc2nc(-c3ccc(OC)cc3OC)no2)nnc1-c1ccc(Cl)cc1 -36.6%
Cc1cccc(C)c1NC(=O)CSc1nc(-c2ccccc2)nc2c1Cc1c(CO)cnc(C)c1O2 -5.48%
CCC1CN(C(=O)N2CCC(C(=O)NCCc3ccc(Cl)cc3)CC2)c2ccccc2O1 (configuration not stated) -45%
O=C1NCCN(Cc2ccc(F)cc2)C1=O 0.657%
Cc1ccc(NC(=O)Cn2cc(C(=O)C3CC3)c3ccccc32)cc1 -11.1%
COc1ccc(NC(=O)Cn2nnc(C(=O)Nc3ccc(F)c(Cl)c3)c2N)cc1OC -12.6%
Cn1c(SCc2ccc(F)cc2)nc2ccc(C(=O)NCc3ccc(Cl)cc3)cc21 -44.5%
COc1ccc(-c2noc(CN(C(=O)COc3cc(C)c(Br)c(C)c3)C(C)C)n2)cc1 -32.7%
CCOc1ccc(-c2nn(CC(=O)NC3CCCCC3)c3c2cnc2ccc(C)cc23)cc1 0.31%
CCC(C(=O)OCCOCCN(CC)CC)c1ccccc1 (configuration not stated) -13.4%
CCCn1c2ccccc2c2cnn(CC(=O)NCCc3ccc(OCC)cc3)c(=O)c21 -30.4%
Cc1ccc(C(=O)NCCc2ccc(Cl)cc2)cc1-n1c(C)nc2cccnc21 -11.1%
COc1cc(-c2noc(-c3ccc(NCc4ccccc4)c([N+](=O)[O-])c3)n2)cc(OC)c1OC -5.32%
CCOc1ccc(NC(=O)CCNS(=O)(=O)c2ccc3c(c2)oc(=O)n3C)cc1 -6.23%
COc1ccc(NC(=O)Cn2nnc3sc4c(c3c2=O)CCC(C)C4)c(OC)c1 (configuration not stated) -7.24%
COc1ccccc1CNC(=O)c1ccc2c(c1)N(Cc1cccc(C)c1)C(=O)c1ccccc1S2(=O)=O -12.5%
COc1ccc(Cl)cc1NC(=O)c1sc(-n2nc(C)c(Cc3ccccc3)c2C)nc1C 0.408%
